Experimental data: PubChem BioAssay AID463173 (ICCB-Longwood Screening Facility, Harvard Medical School, 2010)
Screen size: about 52,000 compounds; about 4,300 (8.3%) were called active. Rule as the data show it: active = survival mostly below about 52% (no sharp cut-off); inactive = mostly above about 56%. The list shows a part of the results.

System: DeltatarO mutant
Experiment: growth inhibition of S. aureus wild type versus tarO mutant, primary screen, teichoic acid synthesis inhibitors, RN4220, OD600 (AID 463173)
Conditions: OD600, 18 h, stronger effect = lower value, screened at 18.75 µg/mL (by protocol)

Compound | survival
CCc1nnc(NC(=O)C(=O)c2cc(C)n(-c3ccccc3)c2C)s1 | inactive: 77%
O=C(N1CCOCC1)N1CCOCC1 | inactive: 67%
CC(C)N(Cc1ccccc1)C(=O)Cn1ncc2c([nH]c3ccccc32)c1=O | inactive: 105%
Cc1ccc2[nH]c(=O)c(CN(CC3CCCO3)C(=S)NCCCN3CCOCC3)cc2c1 (stereo not given) | inactive: 114%
CC1CCC(NC(=O)c2cc3c(Cl)nc4ccccc4c3s2)CC1 (stereo not given) | inactive: 87%
O=C(Cn1ccc2cc(S(=O)(=O)N3CCCCC3)ccc21)NCc1cccc(Cl)c1 | inactive: 117%
CCOc1ccccc1NC(=O)Cn1c(=O)n(Cc2ccccc2)c(=O)c2cccnc21 | inactive: 109%
CC(=O)Nc1ccccc1-c1nc2ccccc2n(Cc2cccc(Br)c2)c1=O | inactive: 84%
COc1ccc(F)cc1S(=O)(=O)Nc1cccc(-c2ccc(N3CCCCCC3)nn2)c1 | inactive: 88%
Cc1cc(S(=O)(=O)NCC(c2ccco2)S(=O)(=O)c2ccccc2)ccc1F (stereo not given) | inactive: 95%
CCOC(=O)C(C)NC(=O)C1CCN(c2ncnc3c2nc2n3CCCCC2)CC1 (stereo not given) | inactive: 83%
CCc1nn(C(CC)C(=O)NCc2ccc(F)cc2)c(=O)c2cc3occc3n12 (stereo not given) | inactive: 76%
COc1cc(C(=O)NCC(c2ccco2)S(=O)(=O)c2ccccc2)cc(OC)c1OC (stereo not given) | inactive: 60%
O=C(CCc1ccccc1)N(Cc1cccnc1)c1nc2c(F)cccc2s1 | inactive: 61%
CCCOc1ccc(C(=O)N(Cc2ccc(N(C)C)cc2)CC2CCCO2)cc1 (stereo not given) | inactive: 64%
O=C(c1cc2c(s1)-c1ccccc1OC2)N1CCN(c2ccccc2)CC1 | inactive: 57%
CC1=C(C(=O)Nc2ccccc2)C(CC(C)C)n2nc(SCc3ccccc3C)nc2N1 (stereo not given) | inactive: 91%
O=C(c1ccccc1/S(=N/S(=O)(=O)c1ccccc1)N1CCOCC1)N1CCOCC1 (stereo not given) | inactive: 75%
CCC1CCCCN1CC(=O)Nc1cc(C)c2c(=O)oc3ccccc3c2n1 (stereo not given) | inactive: 98%
O=C(CSc1nc2c([nH]c3ccccc32)c(=O)n1-c1ccc(Cl)cc1)N1CCOCC1 | inactive: 94%

Compound | survival
Cc1cc(C)cc(NC(=O)C2CCCN(C(=O)c3cnn(-c4ccccc4)c3-n3cccc3)C2)c1 (stereo not given) | inactive: 68%
Cc1ccc(NC(=O)N2CCC(c3ccccc3)C2)cc1C (stereo not given) | inactive: 80%
Cc1ccc(-c2nonc2NC(=O)c2ccc(F)cc2)cc1C | inactive: 84%
Cc1cccc(NC(=O)CSc2c(C)cnc3c2c(=O)n(C)c(=O)n3C)c1C | inactive: 84%
O=S(=O)(NCC(c1ccco1)N1CCOCC1)c1cc(F)ccc1F (stereo not given) | inactive: 81%
CCCOc1ccc(-c2nc(SC)[nH]c(=O)c2C#N)cc1OC | inactive: 79%
CCN(CC)CCN(C(=O)c1ccco1)c1nc2ccc(Br)cc2s1 | inactive: 76%
CC(=O)Nc1nonc1-c1nnc(SCC(=O)Nc2cc(C)cc(C)c2)n1-c1ccccc1 | inactive: 50%
Cc1ccc(S(=O)(=O)c2c(Nc3cc(F)ccc3F)sc(C(=O)c3ccc(F)cc3)c2N)cc1 | inactive: 99%
O=C(c1ccc2c(c1)N(Cc1ccccc1)C(=O)c1ccccc1S2(=O)=O)N1CCCCCC1 | inactive: 70%
Cc1ccc(C(=O)Nc2ccc(OCc3cc(=O)n4c(C)csc4n3)cc2)cc1 | inactive: 95%
CCCN(CCC)CCCNC(=O)Cn1ncc2c3ccccc3n(Cc3ccccc3)c2c1=O | inactive: 100%
Cc1ccc(NC(=O)Cc2csc(C)n2)c(C)c1 | active: 40%
Cc1cccc(NC(=O)CSc2nncn2C)c1 | inactive: 70%
Cc1ccc(Nc2c(-c3ccc(O)cc3)nc3cccc(C)n23)cc1 | inactive: 84%
Cc1nc(-c2ccc(Cl)cc2)sc1CCNC(=O)c1cccs1 | inactive: 105%
CCCCn1c(NCc2ccc(OC)cc2O)nc2ccccc21 | inactive: 66%
O=C(NCc1ccc(F)cc1)c1ccc2c(O)c(S(=O)(=O)c3ccccc3)c(=O)[nH]c2c1 | inactive: 66%
O=C(NCc1ccccc1)c1ccc(CSc2nc3cccnc3n2Cc2cccc(F)c2)cc1 | inactive: 101%
CCCCn1nc(NC(=O)c2cccc(Cl)c2)c2cc3ccccc3nc21 | inactive: 69%

Compound | survival
Cc1ccccc1NS(=O)(=O)c1ccc2[nH]cc(C(=O)N3CCCCC3)c(=O)c2c1 | inactive: 71%
CN(C)c1nc(OCCNC(=O)COc2ccccc2Cl)nc(N(C)C)n1 | inactive: 84%
COc1ccc(C)cc1-n1nnc(-c2nc(-c3ccccc3Cl)no2)c1N | inactive: 70%
COc1ccc(N=c2oc3ccc(Cl)cc3cc2C(=O)NCc2ccco2)cc1OC | inactive: 96%
Cc1ccccc1CN1C(=O)c2ccccc2Sc2ccc(C(=O)N3CCCC3)cc21 | inactive: 78%
CCOc1ccc(CNCc2c(C(=O)O)n(Cc3ccc(C)cc3)c3cc(C)ccc23)cc1 | active: 12%
Cc1cccc(C(=O)N2CCc3cc(CNS(=O)(=O)c4ccc(Cl)s4)ccc32)c1 | inactive: 74%
CCCCN(CC)CCNC(=O)c1cc2c(=O)[nH]c3ccccc3c2n1C | inactive: 85%
C=CCNC(=O)CN1CCC(O)(c2ccccc2F)CC1 | inactive: 97%
CC1Cc2cc(CSC(=N)N)ccc2O1 (stereo not given) | inactive: 80%
CN1CCN(S(=O)(=O)c2cccc3nsnc23)CC1 | inactive: 91%
CC(C)c1ccc(C(=O)Nc2cc(-c3ccccc3F)nn2-c2ccccc2)cc1 | inactive: 73%
Cc1c(C(N)=O)sc2ncn(Cc3ccccc3)c(=O)c12 | inactive: 85%
COc1ccccc1N1CCN(S(=O)(=O)c2ccc(S(=O)(=O)NC3CCCC3)cc2)CC1 | active: 55%
O=Nc1[nH]c(O)c2cc(Br)ccc12 | inactive: 52%
Cc1ccc(-c2nnn3c2nc(NCCc2ccc(Cl)cc2)c2ccccc23)cc1 | inactive: 82%
CCOc1ccc(C2Nc3c(C)cccc3-c3cc(C)nn32)cc1 (stereo not given) | active: 0%
Oc1ccc2ccccc2c1CN1CCCC1 | inactive: 102%
CCOc1ccccc1C(=O)Nc1c(C(=O)Nc2ccc(F)cc2)oc2ccccc12 | inactive: 83%
Cn1c(=O)c(=O)n(C)c2cc(S(=O)(=O)CCC(=O)Nc3ccc(F)cc3)ccc21 | inactive: 83%
